In all, about 270,000 compounds went through this assay and about 5,800 (2.1%) were called active. The inconclusive results got no clear call from the source; some entries with a clear call stand among them for comparison. Calls come from the whole dose curve; as a rule, active = well fitted inhibition curve with a large enough effect; inconclusive = small, poorly fitted or top-dose-only effect; inactive = flat fitted curve, though single readings scatter. Where the call is inconclusive, the potency comes from a doubtful curve fit.
These compounds were tested against Microtubule-associated protein tau (Homo sapiens) (UniProt P10636) (assay: qHTS for Inhibitors of Tau Fibril Formation, Thioflavin T Binding). Settings: recombinant tau K18 P301L, heparin-induced fibrillization, ThT fluorescence; series mostly up to 57.4 µM.
Summary of the method: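 Fibril formation assay: tau K18 P301L at 15 uM with trace Alexa 594 label, heparin inducer 20 uM, pH 7 sodium acetate buffer, 37 C for 6 hr; endpoint ThT signal.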
% is set by controls: 0 for no effect and ±100 for the full control effect; potency is the fitted concentration of half-maximal effect; tags give direction and shape of the fitted curve.
Note: nearly all actives have a fitted effect of over 55% in size.

Chain of UniProt P10636 (P10636 whole entry, looked up): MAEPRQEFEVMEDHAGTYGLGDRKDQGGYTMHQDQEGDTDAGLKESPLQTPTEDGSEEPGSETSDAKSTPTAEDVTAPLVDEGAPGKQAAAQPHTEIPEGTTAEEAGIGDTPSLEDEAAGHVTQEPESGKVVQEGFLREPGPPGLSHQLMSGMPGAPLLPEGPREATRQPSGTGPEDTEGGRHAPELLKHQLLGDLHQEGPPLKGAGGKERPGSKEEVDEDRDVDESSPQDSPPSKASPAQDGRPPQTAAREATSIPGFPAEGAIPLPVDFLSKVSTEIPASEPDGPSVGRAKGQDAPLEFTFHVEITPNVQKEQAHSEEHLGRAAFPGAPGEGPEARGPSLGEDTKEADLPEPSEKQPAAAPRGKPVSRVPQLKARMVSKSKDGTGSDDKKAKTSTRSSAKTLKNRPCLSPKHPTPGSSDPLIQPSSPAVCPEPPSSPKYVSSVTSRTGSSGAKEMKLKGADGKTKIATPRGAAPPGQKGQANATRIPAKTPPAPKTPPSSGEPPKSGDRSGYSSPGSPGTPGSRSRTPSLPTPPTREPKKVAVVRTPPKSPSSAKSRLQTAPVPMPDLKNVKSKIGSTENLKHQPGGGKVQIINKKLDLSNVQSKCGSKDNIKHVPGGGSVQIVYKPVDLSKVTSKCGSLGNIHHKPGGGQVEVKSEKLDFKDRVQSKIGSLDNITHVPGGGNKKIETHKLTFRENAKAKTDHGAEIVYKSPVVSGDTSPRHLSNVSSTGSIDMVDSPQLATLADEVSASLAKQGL

Row | SMILES | Potency | activity, negative = inhibition
1 | CCOc1ccc(NC(C)C(=O)N/N=C/c2ccc([N+](=O)[O-])cc2)cc1 (stereo not given) | inconclusive: 15.8 µM [inhibitor, single point] | 
2 | CC(=O)c1cccc(NC(=O)/C=C/c2ccc([N+](=O)[O-])s2)c1 | active: 3.98 µM | 
3 | COc1ccc(C(=O)OCc2cc(=O)n3nc(-c4cccs4)sc3n2)cc1 | inconclusive: 0.708 µM [inhibitor, full curve] | 
4 | COC(=O)C(C#N)c1nc2ccccc2nc1N1CCCC1 (stereo not given) | inconclusive: 15.8 µM [inhibitor, partial curve] | 
5 | Cc1ccc(-c2csc3nnc(SCC(=O)Nc4cccc(C)n4)n23)cc1 | inconclusive: 22.4 µM [inhibitor, partial curve] | 
6 | O=C(Nc1nnc(-c2cccnc2)o1)c1ccccc1Cl | inactive | 
7 | CCC(CO)NC(=O)C(=O)Nc1c2c(nn1-c1ccc(F)cc1)CSC2 (stereo not given) | inconclusive: 15.8 µM [inhibitor, partial curve] | 
8 | CCCCCCCc1c(C#N)c(N)[nH]c(=S)c1C#N | inconclusive: 28.2 µM [inhibitor, single point] | 
9 | Fc1ccccc1N1CCN(c2cnc3ccccc3n2)CC1 | inconclusive: 14.1 µM [inhibitor, partial curve, poor fit] | 
10 | CCc1c(C)sc(NC(=O)c2cc(-c3ccco3)on2)c1C#N | inactive | 
11 | CC(=O)NCc1ccc(-c2csc(N)n2)s1 | inconclusive: 35.5 µM [inhibitor, single point] | 
12 | Cc1cc(C)n(-c2cc(N3CCN(C(=O)c4ccc(C(C)(C)C)cc4)CC3)ccc2[N+](=O)[O-])n1 | inconclusive: 22.4 µM [inhibitor, partial curve] | 
13 | O=C(c1ccc(Cl)cc1)N1CCC(c2ccncc2)CC1 | inactive | 
14 | Cn1c(SCC(=O)N/N=C/c2ccc([N+](=O)[O-])s2)nnc1-c1ccc(Cl)cc1 | inconclusive: 25.1 µM [inhibitor, partial curve] | 
15 | CCN(CC)S(=O)(=O)c1ccc2nc(NC(=O)c3cccnc3)sc2c1 | inactive | 
16 | O=C(Cn1c(=O)ccc2cc(S(=O)(=O)N3CCCC3)ccc21)NCc1ccc(Cl)cc1 | inactive | 
17 | CC(C)(C)c1ccc(S(=O)(=O)NCc2ccc3c(c2)CCN3C(=O)c2ccccc2)cc1 | inactive | 
18 | O=C(CSc1ccc(-c2nc3ccccc3[nH]2)cn1)Nc1ccc(S(=O)(=O)NC2CC2)cc1 | inconclusive: 17.8 µM [activator, partial curve] | 
19 | CCN(CCNC(=O)C1CCN(c2nnc(-n3cccc3)s2)CC1)c1ccccc1 | inconclusive: 11.2 µM [inhibitor, partial curve] | 
20 | O=C(NNC(=S)Nc1ccc(F)c(Cl)c1)C1CC1 | inactive | 
21 | COc1ccc(C(=O)Nc2ccc([N+](=O)[O-])cn2)cc1OC | inconclusive: 8.91 µM [inhibitor, partial curve] | 
22 | Cc1ccc(-c2cc(C(=O)N3CCCc4ccccc43)no2)cc1 | inconclusive: 28.2 µM [inhibitor, single point] | 
23 | Oc1c(C=Nc2cccnc2)sc2ccccc12 | active: 12.6 µM | 
24 | CCOc1ccc(/C=N/OCC(=O)NCc2ccc3c(c2)OCO3)cc1OC | inactive | 

Row | SMILES | Potency | activity, negative = inhibition
25 | Oc1ccc(/C=N/Nc2ccnc3cc(Cl)ccc23)cc1O | active: 10 µM | 
26 | CCc1ccc(Oc2c(C(F)(F)F)oc3c(CN4CCC(C)CC4)c(O)ccc3c2=O)cc1 | inactive | 
27 | COc1cc(-c2cc(OC)c3c(C)oc(C)c3c(=O)c2)ccc1O | inconclusive: 14.1 µM [inhibitor, partial curve] | 
28 | CC(=O)c1ccc(NC(=O)Cn2c(-n3nc(C)cc3C)nc(C)c(C)c2=O)cc1 | inconclusive: 39.8 µM [inhibitor, single point] | 
29 | CCOc1ccccc1Nc1nnc(-c2cc3cc(OC)ccc3oc2=O)s1 | inconclusive: 0.708 µM [inhibitor, full curve] | 
30 | COC(=O)[C@@]1(Cc2ccccc2)[C@H]2c3cc(C(=O)N4CCCC4)n(Cc4ccccc4)c3C[C@H]2CN1C(=O)c1ccccc1 | inconclusive: 28.2 µM [inhibitor, single point] | 
31 | O=C1NC(=O)/C(=C\c2ccc(OCc3cccc([N+](=O)[O-])c3)cc2)N1 | inconclusive: 3.16 µM [inhibitor, full curve] | 
32 | COc1ccccc1-c1nn2c(C3COc4ccccc4O3)nnc2s1 (stereo not given) | inconclusive: 20 µM [inhibitor, partial curve, poor fit] | 
33 | Cc1ccc(NC(=O)CN2CCSc3ccc(S(=O)(=O)N4CCCC4)cc32)cc1 | inactive | 
34 | O=C(Nc1ccccc1)N(CCCN1CCOCC1)Cc1cccs1 | inactive | 
35 | Fc1cccc(Cc2noc(CN3CCCN(C4Cc5ccccc5C4)CC3)n2)c1 | inconclusive: 14.1 µM [inhibitor, partial curve] | 
36 | Cc1ccc(NC(=O)CCN2CCN(CCO)CC2)cc1C | inactive | 
37 | COc1ccc(OC[C@@H](CO)OC)cc1 |  | inactive: 2.83% [at 11.5 µM]
38 | CCCCn1c(-c2csc(CC)c2)n[nH]c1=S | inactive | 
39 | O=C(CC(SCCO)c1ccc(F)cc1)c1ccco1 (stereo not given) | inconclusive: 39.8 µM [inhibitor, single point] | 
40 | CCC(C)[C@H](NC(=O)N1CCCCCC1)C(=O)OC (stereo not given in full) | inactive | 
41 | Cc1ccc(C(=O)Nc2sc(C)c(C)c2C(=O)c2ccccc2)cc1 | inconclusive: 14.1 µM [inhibitor, partial curve] | 
42 | Cc1ccc(S(=O)(=O)CC(=O)Nc2sc3c(c2C(N)=O)CCCC3)cc1 | inconclusive: 3.55 µM [inhibitor, partial curve] | 
43 | COc1cc(C)ccc1OCCOc1ccccc1Cl | inconclusive: 28.2 µM [inhibitor, partial curve] | 
44 | Cn1c(=O)c2cc(S(=O)(=O)NC(Cc3ccccc3)C(=O)NCc3ccco3)ccc2n(C)c1=O (stereo not given) | inconclusive: 31.6 µM [inhibitor, partial curve] | 
45 | COc1ccc(NC(=O)Nc2cccc(F)c2)c(OC)c1 | inconclusive: 17.8 µM [inhibitor, partial curve, poor fit] | 
46 | Cc1ccc(/C=N/NC(=O)CSc2nc3ccccc3n2Cc2ccc(Cl)cc2)o1 | inconclusive: 14.1 µM [inhibitor, partial curve] | 
47 | CCOC(=O)c1csc(-c2sccc2Br)n1 | inconclusive: 5.62 µM [inhibitor, full curve] | 
48 | COc1ccc(C2c3sc(=O)[nH]c3SC3C4CCC(C4)C23)cc1OC (stereo not given) | inconclusive: 25.1 µM [inhibitor, single point] | 

Row | SMILES | Potency | activity, negative = inhibition
49 | Nn1c(SCC(=O)N2CCN(S(=O)(=O)c3ccc(Cl)cc3)CC2)nnc1-c1cccs1 | inactive | 
50 | Cc1c(NC(=S)NC(=O)c2ccc(-c3ccc(Cl)cc3)o2)cccc1C(=O)O | inconclusive: 12.6 µM [inhibitor, partial curve, poor fit] | 
51 | COC(=O)[C@@]1(Cc2ccc(OC)cc2)[C@H]2c3cc(C(=O)N(C)C)n(Cc4ccccc4)c3C[C@H]2CN1C(=O)c1ccccc1 | inconclusive: 28.2 µM [inhibitor, partial curve, poor fit] | 
52 | CCOc1ccccc1NC(=O)C(OC(=O)c1ccc(O)cc1)c1ccccc1 (stereo not given) | inactive | 
53 | CCOC(=O)c1sc2nc(NC(=O)COc3ccccc3)sc2c1C | inconclusive: 1.41 µM [inhibitor, full curve] | 
54 | S=C(Nc1ccccc1)N1CCOCCOCCN(C(=S)Nc2ccccc2)CCOCCOCC1 | inconclusive: 8.91 µM [activator, single point] | 
55 | COc1cc(/C=N/NC(=O)CNC(=O)c2cccs2)ccc1O | inconclusive: 39.8 µM [inhibitor, single point] | 
56 | CC(C)N(C)C1CCN(S(=O)(=O)c2ccc3[nH]c(=O)ccc3c2)CC1 | inactive | 
57 | Cc1ccc(NC2c3ncccc3C(=O)N2c2ccccc2C)cc1C (stereo not given) | inconclusive: 31.6 µM [inhibitor, single point] | 
58 | Cc1cc(/C=N/NC(N)=O)c(C)n1-c1ccc(F)cc1 | inconclusive: 28.2 µM [inhibitor, partial curve] | 
59 | COc1ccc(NC(=O)Cn2c(SCc3ccc(F)cc3)nc3cccnc32)cc1OC | inconclusive: 28.2 µM [activator, single point] | 
60 | O=C(CN1CCCCCC1)Nc1cccc(Br)c1 | inactive | 
61 | O=C(NCCc1ccc(Cl)cc1)c1ccc(CS(=O)Cc2ccccc2Cl)o1 (stereo not given) | inconclusive: 39.8 µM [inhibitor, single point] | 
62 | Cn1ccnc1SCC(=O)c1ccc(Br)cc1 | inconclusive: 17.8 µM [inhibitor, partial curve] | 
63 | Cc1cc[n+](C(C)C(=O)c2ccc(-c3ccccc3)cc2)cc1 (stereo not given) | inactive | 
64 | C=C1/C(=C\C=C2/CCC[C@]3(C)[C@@H]([C@H](C)CCCC(C)(C)O)CC[C@@H]23)C[C@@H](O)C[C@@H]1O | inconclusive: 22.4 µM [inhibitor, partial curve] | 
65 | COc1cccc(-c2cn3nc(C)c(C)nc3n2)c1 | inconclusive: 7.94 µM [inhibitor, partial curve] | 
66 | CC(C)CCn1c(=O)c2sccc2n2c(CCCC(=O)NCCc3ccccc3)nnc12 | inactive | 
67 | O=C1CC(c2ccccc2)c2c(n3ncnc3[nH]c2=O)N1 (stereo not given) | inactive | 
68 | CN(C)c1nc(NCc2ccccc2)nc(N/N=C/c2ccc3c(c2)OCO3)n1 | inconclusive: 39.8 µM [inhibitor, single point] | 
69 | Cc1noc(/C=C/c2nn(C)cc2Cl)c1[N+](=O)[O-] | inconclusive: 20 µM [inhibitor, partial curve] | 
70 | CCc1cccc(NC(=O)Cn2c(=O)n(CC(=O)NCCc3ccccc3)c(=O)c3ccccc32)c1 | inactive | 

— PubChem BioAssay AID1460 (National Center for Advancing Translational Sciences (NCATS), 2008)
